# Among all 310,000 compounds or so, about 2,200 (0.71%) showed an effect of 50% or more. The effect is printed as a negative number. This is one part of the list.
# Biological target: human ether-à-go-go-related gene (hERG) potassium channel (human, UniProt Q12809)
# Assay: primary screen, population patch clamp on CHO cells stably expressing hERG
# Chain of human ether-à-go-go-related gene (hERG) potassium channel (Q12809 whole entry, looked up): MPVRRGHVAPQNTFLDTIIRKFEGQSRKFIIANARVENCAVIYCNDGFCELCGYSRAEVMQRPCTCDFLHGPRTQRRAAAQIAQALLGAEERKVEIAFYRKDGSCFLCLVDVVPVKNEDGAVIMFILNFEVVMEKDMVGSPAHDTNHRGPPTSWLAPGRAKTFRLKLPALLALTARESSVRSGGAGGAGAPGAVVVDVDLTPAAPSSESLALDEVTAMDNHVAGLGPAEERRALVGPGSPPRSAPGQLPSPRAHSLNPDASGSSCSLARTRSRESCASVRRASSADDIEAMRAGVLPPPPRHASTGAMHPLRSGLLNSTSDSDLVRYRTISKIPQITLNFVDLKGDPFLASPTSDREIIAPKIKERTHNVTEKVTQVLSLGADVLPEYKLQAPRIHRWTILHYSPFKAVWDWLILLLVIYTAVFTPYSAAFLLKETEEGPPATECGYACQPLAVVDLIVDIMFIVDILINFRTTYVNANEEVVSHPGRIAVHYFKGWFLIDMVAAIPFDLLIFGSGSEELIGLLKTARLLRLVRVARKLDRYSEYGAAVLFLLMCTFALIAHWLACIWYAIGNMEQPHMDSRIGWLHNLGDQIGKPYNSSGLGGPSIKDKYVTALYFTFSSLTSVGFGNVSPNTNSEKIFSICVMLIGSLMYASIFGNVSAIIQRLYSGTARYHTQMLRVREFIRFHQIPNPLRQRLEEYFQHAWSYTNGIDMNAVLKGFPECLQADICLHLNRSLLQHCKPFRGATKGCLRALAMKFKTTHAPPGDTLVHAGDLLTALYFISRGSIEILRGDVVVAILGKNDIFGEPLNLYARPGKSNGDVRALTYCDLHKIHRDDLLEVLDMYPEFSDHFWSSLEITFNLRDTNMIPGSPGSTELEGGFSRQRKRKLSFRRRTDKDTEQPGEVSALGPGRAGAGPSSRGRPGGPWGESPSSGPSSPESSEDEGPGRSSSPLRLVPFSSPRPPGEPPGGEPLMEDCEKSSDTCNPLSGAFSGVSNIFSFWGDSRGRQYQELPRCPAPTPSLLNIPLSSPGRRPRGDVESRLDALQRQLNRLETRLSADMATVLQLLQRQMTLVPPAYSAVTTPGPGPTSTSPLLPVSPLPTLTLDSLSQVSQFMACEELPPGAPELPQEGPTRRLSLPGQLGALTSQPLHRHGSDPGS
row,Compound,"hERG current change (%, negative = inhibition) at 1uM [%]"
1,O=C(COC(=O)c1ccccc1O)Nc1cc(S(=O)(=O)N2CCCCCC2)ccc1Cl,7.15
2,COc1ccc(-c2nnc(COc3ccc(Br)cc3C)o2)cc1,13.3
3,c1csc(-c2nc(NCC3CCCO3)c3ccccc3n2)c1 (centres unmarked),9.69
4,Oc1c(CN2CCCC(C(F)(F)F)C2)cc(Cl)c2ccccc12 (centres unmarked),8.18
5,CC(C)NC(=O)Cn1c(=O)n(CC(=O)N2CCCCC2)c(=O)c2sccc21,12.2
6,CCCCn1ccnc1C(=O)c1cc(S(=O)(=O)N2CCOCC2)ccc1C,11.3
7,Cn1c(Cn2c(=O)sc3ccccc32)nnc1SCC(=O)NCc1ccccc1,1.21
8,Cc1cc2n(n1)C(c1ccc3c(c1)OCO3)Nc1c(C)cccc1-2 (centres unmarked),8.12
9,O=C(CC1SCCNC1=O)Nc1cc(Cl)cc(Cl)c1 (centres unmarked),4.21
10,COc1ccc(-n2c(SCCNCCO)nc3sc4c(c3c2=O)CCCC4)cc1,-2.98
11,c1ccc(Cn2ncc3c(NCc4ccco4)ncnc32)cc1,0.573
12,O=C(OCCOc1cccc(Cl)c1)c1cc(S(=O)(=O)N2CCOCC2)ccc1F,8.59
13,O=C(Nc1ccccc1)OCCCCCOC(=O)Nc1ccccc1,13.6
14,Cc1cccc(NC(=O)N2CCC(c3nc4ccccc4o3)CC2)c1,4.61
15,Cc1cc(=O)oc2c(C)c(OCC(=O)N3CCN(C(=O)C4COc5ccccc5O4)CC3)ccc12 (centres unmarked),-19.9
16,CCCCN(C(=O)CSc1nnc(-c2ccco2)o1)c1c(N)n(Cc2ccccc2)c(=O)[nH]c1=O,16.2
17,O=c1cc(CN2CCN(c3ccc(F)cc3)CC2)nc2sccn12,-4.42
18,COC(=O)C1=C(C)NC(C)=C([N+](=O)[O-])C1c1ccccc1C(F)(F)F (centres unmarked),7.92
19,CSc1nc2c(c(=O)[nH]1)C(c1ccc(Br)cc1)CC(=O)N2 (centres unmarked),6.75
20,CN1C(=O)/C(=C/c2ccc(OC(=O)c3ccco3)cc2)SC1=S,-1.75
21,O=C(Nc1ccccc1)c1csc(-c2ccccc2)n1,9.97
22,COC(=O)C1=C(c2cccc(C#N)c2)C[C@@H]2CC[C@H]1N2C(=O)NCc1cccc2ccccc12,4.58

row,Compound,"hERG current change (%, negative = inhibition) at 1uM [%]"
1,CC(C)(C)NC(=O)C1CC(=O)OC1(C)C (centres unmarked),3.56
2,CS(=O)(=O)N1CCc2cc(C(=O)N3CCN(c4ccccc4F)CC3)ccc21,-2.95
3,COc1ccc(C(O)C(CN2CCOCC2)c2ccccc2)cc1F.Cl (centres unmarked),6.72
4,c1ccc(-c2csc(-n3cccn3)n2)cc1,17
5,Cc1ccc(N2CCN(C(=O)c3ccccc3Br)CC2)c(C)c1,5.05
6,COc1ccc(NC(=O)CCNS(=O)(=O)c2ccc3c(c2)c(=O)n(C)c(=O)n3C)c(OC)c1,11.2
7,COc1ccc(-c2ncncc2-c2ccc(Cl)cc2)c(O)c1,10.2
8,CC(C)=NN/C(N)=N/C(=S)Nc1ccc(C)cc1,11.2
9,CCOc1ccc(C(Nc2ccc(C)cc2)P2(=O)OCCC(C)O2)cc1 (centres unmarked),-3.18
10,CCC(=O)N1c2ccc(S(=O)(=O)CCC(=O)Nc3nccs3)cc2CC1C (centres unmarked),5.42
11,FC(F)Oc1ccccc1NC(=S)NCCc1ccccc1,3.4
12,O=C(COC(=O)C1CCN(S(=O)(=O)c2ccc(Cl)c(C(F)(F)F)c2)CC1)NCc1ccco1,12.3
13,COC(=O)c1[nH]c2cccc(Cl)c2c1NC(=O)CN1CCN(CCO)CC1,-2.22
14,COc1ccc(NC(C)=O)cc1NC(=O)C1CCN(C(=O)Nc2ccccc2)CC1,10.7
15,Cc1cccc(NC(=O)C(=O)NNC(=O)c2ccc(C(C)(C)C)cc2)c1,18.3
16,COc1cc(CO)cc(Br)c1OCc1cccnc1,13.1
17,COCCn1c(SCC(=O)N2CCCc3ccccc32)nc2c(c1=O)SC(C)C2 (centres unmarked),5.79
18,Cc1ccc(S(=O)(=O)N2CCCCC2)cc1NC(=O)C1CC(=O)N(Cc2ccccc2)C1 (centres unmarked),1.43
19,O=C(c1ccc(S(=O)(=O)Cc2cc(F)ccc2F)c([N+](=O)[O-])c1)N1CCCCC1,-4.4
20,CC(=O)Nc1ccc(S(=O)(=O)N2CCN=C2c2ccccc2)cc1,14.6
21,CS(=O)(=O)N(CCc1ccccc1)CC(=O)N1CCN(Cc2ccc3c(c2)OCO3)CC1,-9.05
22,O=C(c1ccc(-c2cccc(C(F)(F)F)c2)o1)N1CCCCCCC1,5.25
